# In the supplement of paper PMC12632987:
# Whole data set: some 2,300 sequences, median “median log2 fold change of GCK-ALFA target abundance (FLAG IP / Myc IP barcode read proportion)” near 0.095, cut for the lowest 2% near -0.47. The list shows a part of the results.
# B1: LC3A_28_871 (protein)
# chain: SHIEEQVEKIKKELEEQAKKGEDAVVEVEITESMSLEEAVELMNKVLEVAKEYVEKTGLKVSIVINYDGDQETLDAIADLAEKAEKENPKITVIIALPEE
# B2: LC3A_free_46_2349 (protein)
# chain: VKAEILIDLLAKDEETLKKAVEEIIKAAKEIAKKYNLEIKIETEISKLEDGSYYAEIKITLKGKNKEDVEKAVNELINKIEEIAKKYNVSAVISYEIKDV
# B3: LC3A_147_431 (protein)
# chain: YITTVDIDVLTKDAEEEVIKAAKEIEEELKAKGYEVELEIEVEELENGEKYIHIKITVKTETEEEAKEAADYIVDKFEELEEKLKDKILGSIISVEIEEA
# B4: LC3A_3_1373 (protein)
# chain: MEEKIKELLEFLKEKGKSEETLEAVRKALEALAEKGYEEAAETFIELMKELEDVPDELLLYFAEDVLEAVTEEDLSEEELIEFIKEEASVVRNESEIIEL
# B5: LC3A_3_1617 (protein)
# chain: LEELLKKALEALKEAGKSEETLKLVEEVVKLLLEKGYEEAARTFLELLIENKDLPEEILRDFVEEVKRLVEEEDLSEEELTKRIKEIAEIARNESEIEEL
# B6: LC3A_3_1853 (protein)
# chain: MEEIIKEIEKLLKELGRSEETIEAALKLAEALAKRGYENALKELLKKLKELKDLPDEILLDMFEDILAAVETKDLSEEETIKLINEEAETAKNEAEIEEL
# B7: LC3A_3_1620 (protein)
# chain: MEEEVKETLEELKKAGASEETLEAFRETAELLMEKGYYEALKTLIEEMRKIKDLPNEIILDALEEVKEVIETEDLNEEELIEEIKNIFRTARNEGEIIEL
# B8: LC3A_3_1394 (protein)
# chain: FEEIRKETIKTLKEFGKSEEVIKAAEKVLDALEKRGYEEAAKTLLEELKEMKDLSDELLLDFLNDVLDYLETNDDNEEEVIKFIKEEARIAKNEGEIEEL
# B9: LC3A_free_46_2398 (protein)
# chain: YKAIIDVDVYGLTEEQAEEFIKRVKEEAEKISKKYGVKVEIEVEVEKNPDGTYYVRITITITGEDKETVEKAATELIDGLEKIAEELGAAMIISEEFIDE
# B10: LC3A_45_1950 (protein)
# chain: MWEATVDVLVPREEFEKALEVLREMAERLERELGVEVEIDEEAVEEARKEAEENGEALITVRVRHEDEQVALDAADRIADELEERLSPSVAVIISVEKVP
# B11: LC3A_36_1337 (protein)
# chain: MVVIVLSAASEEVRAAEEAHYRAKGATVFAVAVEDLDEATKEEILAVVKAAGPDADIIIVAVAETEEGLAKVLKKASELADYIEEETGRTVIIEVDLVEK
# B12: LC3A_free_46_2433 (protein)
# chain: YLVEIDIDLLHEDEEVLKKAVEEIVEAIKEIAEKYNGEVEIEVSFSKDEDGSYFAEIKAKIKVETKEKAEEVANELIDKIDEIAEKYDVSYIISVDIEEL
# B13: LC3A_3_1418 (protein)
# chain: MEEERAALLEELRAAGHSDETLAAVRALLDLLLARGAEEEARRVIELFREAKDLSSERLLEVAEEVRAALEAGEITPEEAVELAKELLSIARSEEEIEEL
# B14: LC3A_free_39_2286 (protein)
# chain: SAAELAAAVARLAALLDEIPGLSAEERATILDAARRDLATARAILDALEELREAGGDVGAAAREIAAKIRELEAAGASDEEITAEVIELARDLVNLIPID
# B15: LC3A_3_1871 (protein)
# chain: MAAVEARILALLRARGRSPETIAAARELLAALRARGYEEAARVLLAELEELADLPDELLLAMFEDLLRRVTEEDLDEEEAIEAIREEARTARNEAEIEEL
# B16: LC3A_147_423 (protein)
# chain: YRVVVEAYFLVKKDGEEAKEAIRELAERLREEGAKRVEIEEEEDEEDGTILIKVTIEAERETLEEAQAFADRVIDDFEELEEKHKDTLKLGAISVEIEKA
# B17: LC3A_28_1298 (protein)
# chain: SPLREELEKVLKEAKEAAAKGEATVFTLKVTADADEEDIDYVIETMEEIAELLKDVPGSAIIVDVEAGVPQEHIDRLADKAEEIEKKYPNVTVIIALEEE
# B18: LC3A_free_46_2364 (protein)
# chain: MEIDIDLLAKGKSEEEVEKIAKEIEEEIKKAAKEHGVEVEIETEIEKLEDGDYFINIKIKAKAETKEKAQAFEQAVIDIIEEFSLKYNLAAIISITEVEP
# B19: LC3A_free_26_2155 (protein)
# chain: EEFVDLGALDKALDLLDEIKKLLKEHAEKLPEALALVEQAREQLDKLTLEAFEAALALLDQAKKLVEAEKSLPEELKEKLLKLLDEARAHVQEIIEVMKS
# Biological target: MAP1LC3A, Q9H492
# Test: median log2 fold change of GCK-ALFA target abundance (FLAG IP / Myc IP barcode read proportion) (log2 ratio); each designed protein is fused to an ALFA-tag nanobody in HEK293 cells to bring the named protein to FLAG-tagged glucokinase (GCK); Myc marks an untargeted standard; higher = target protein stabilised (more abundant)
# Conditions: target protein: 3xFLAG-MCP-GCK-ALFA reporter; HEK293 landing pad (RPLP)
# Procedure, shortened: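 Sequencing of reverse-transcribed, amplified circular RNA barcodes from anti-FLAG and anti-Myc immunoprecipitates provided the readout for an ALFA-nanobody-fused binder library recombined into HEK293 landing-pad cells. Those cells were induced with 2 μg mL^−1 doxycycline, transfected with a plasmid expressing a FLAG-tagged target and a Myc-tagged standard, and lysed after 48 h. Target abundance is the per-binder median log2 ratio of FLAG to Myc barcode read proportions. Only barcodes at a proportion of ≥10^−7 in both replicates and binders with ≥3 barcodes per replicate were kept, with a 10^−6 pseudocount added before the two replicates were pooled.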
row,Binder,median log2 fold change
1,B1,-0.463
2,B2,0.257
3,B3,0.117
4,B4,-0.201
5,B5,0.468
6,B6,0.119
7,B7,-0.0392
8,B8,0.351
9,B9,-0.116
10,B10,0.0029
11,B11,0.15
12,B12,0.126
13,B13,0.208
14,B14,0.187
15,B15,0.0802
16,B16,-0.164
17,B17,0.226
18,B18,-0.127
19,B19,0.117
